Data reported in a collection of fitness landscapes (doi:10.1126/science.1257360).
Some of the results follow.

B1: PhoQ; a variant is named by its letters at X, in order, P23837 (parent)
chain: MKKLLRLFFPLSLRVRFLLATAAVVLVLSLAYGMVALIGYSVSFDKTTFRLLRGESNLFYTLAKWENNKLHVELPENIDKQSPTMTLIYDENGQLLWAQRDVPWLMKMIQPDWLKSNGFHEIEADVNDTSLLLSGDHSIQQQLQEVREDDDDAEMTHSVAVNVYPATSRMPKLTIVVVDTIPVELKSSYMVWSWFIYVLSANLLLVIPLLWVAAWWSLRPIEALAKEVRELEEHNRELLNPATTRELTSLVRNLNRLLKSERERYDKYRTTLTDLTHSLKTPLXXLQXXLRSLRSEKMSVSDAEPVMLEQISRISQQIGYYLHRASMRGGTLLSRELHPVAPLLDNLTSALNKVYQRKGVNISLDISPEISFVGEQNDFVEVMGNVLDNACKYCLEFVEISARQTDEHLYIVVEDDGPGIPLSKREVIFDRGQRVDTLRPGQGVGLAVAREITEQYEGKIVAGESMLGGARMEVIFGRQHSAPKDE

Variants of: B1
Assay: enrichment ratio after two sorts for PhoP signalling (ratio (wild type AVST 3.29)); higher = more functional
Details: with PhoP (E. coli)

Row | Variant | enrichment ratio
1 | KGCL | ≤ 0.25
2 | QTRL | ≤ 0.25
3 | THIC | ≤ 0.25
4 | RHYL | ≤ 0.25
5 | QYWK | ≤ 0.25
6 | YQYH | ≤ 0.25
7 | IWWD | ≤ 0.25
8 | YPWG | ≤ 0.25
9 | SLWV | ≤ 0.25
10 | DANK | ≤ 0.25
11 | WIIP | ≤ 0.25
12 | CRSS | ≤ 0.25
13 | NFCC | ≤ 0.25
14 | FHFS | ≤ 0.25
15 | RVAC | ≤ 0.25
16 | PDVP | ≤ 0.25
17 | TRVQ | ≤ 0.25
18 | PLFM | ≤ 0.25
19 | ESWF | ≤ 0.25
20 | DLIM | ≤ 0.25
21 | MFRQ | ≤ 0.25
22 | DFFW | ≤ 0.25
23 | EQAN | ≤ 0.25
24 | MGKD | ≤ 0.25
25 | PFSH | ≤ 0.25
26 | MLYW | ≤ 0.25

Row | Variant | enrichment ratio
27 | KQWA | ≤ 0.25
28 | FIFP | ≤ 0.25
29 | LNPF | ≤ 0.25
30 | MQAW | ≤ 0.25
31 | WNTS | ≤ 0.25
32 | FNGK | ≤ 0.25
33 | WGTM | ≤ 0.25
34 | PPVY | ≤ 0.25
35 | IVQF | ≤ 0.25
36 | FTNM | ≤ 0.25
37 | IQHE | ≤ 0.25
38 | GYGD | ≤ 0.25
39 | ISQT | ≤ 0.25
40 | TDVE | ≤ 0.25
41 | MSPM | ≤ 0.25
42 | TVFE | ≤ 0.25
43 | HANK | ≤ 0.25
44 | DYMK | ≤ 0.25
45 | GTVH | ≤ 0.25
46 | KQQY | ≤ 0.25
47 | GEND | ≤ 0.25
48 | LHCC | ≤ 0.25
49 | FLDH | ≤ 0.25
50 | VHFL | ≤ 0.25
51 | SKRV | ≤ 0.25
52 | NVVN | ≤ 0.25

Row | Variant | enrichment ratio
53 | ATKK | ≤ 0.25
54 | EIHI | ≤ 0.25
55 | DERQ | ≤ 0.25
56 | HNNV | ≤ 0.25
57 | VEEL | ≤ 0.25
58 | GKFE | ≤ 0.25
59 | MWSH | ≤ 0.25
60 | QNNF | ≤ 0.25
61 | DAGY | ≤ 0.25
62 | RLIT | ≤ 0.25
63 | NGSL | ≤ 0.25
64 | QFSC | ≤ 0.25
65 | LEEC | ≤ 0.25
66 | PLSV | ≤ 0.25
67 | VKGA | ≤ 0.25
68 | MTPH | ≤ 0.25
69 | RTFW | ≤ 0.25
70 | SHST | ≤ 0.25
71 | IDNW | ≤ 0.25
72 | LMHL | ≤ 0.25
73 | LPKK | ≤ 0.25
74 | GTGP | ≤ 0.25
75 | ICKK | ≤ 0.25
76 | VGLM | 6.74
77 | LNET | ≤ 0.25
78 | SRPE | 0.776

Row | Variant | enrichment ratio
79 | QRFR | ≤ 0.25
80 | THIA | ≤ 0.25
81 | SCES | ≤ 0.25
82 | HLHH | ≤ 0.25
83 | IDNE | ≤ 0.25
84 | LWIE | ≤ 0.25
85 | APHD | ≤ 0.25
86 | WADM | ≤ 0.25
87 | RNCL | ≤ 0.25
88 | TNYD | ≤ 0.25
89 | PVSY | ≤ 0.25
90 | QIRL | ≤ 0.25
91 | DWDA | ≤ 0.25
92 | HASH | ≤ 0.25
93 | IVFA | ≤ 0.25
94 | FTQH | ≤ 0.25
95 | LYTG | ≤ 0.25
96 | EYFW | ≤ 0.25
97 | SFMY | ≤ 0.25
98 | HMPQ | ≤ 0.25
99 | PNHD | ≤ 0.25
100 | RWGF | ≤ 0.25
101 | DLES | ≤ 0.25
102 | LLCD | ≤ 0.25
103 | EKSH | ≤ 0.25
104 | EEHI | ≤ 0.25

Row | Variant | enrichment ratio
105 | PEGY | ≤ 0.25
106 | DNSC | ≤ 0.25
107 | TAQN | ≤ 0.25
108 | APYN | ≤ 0.25
109 | GWMT | ≤ 0.25
110 | KKYA | ≤ 0.25
111 | QQGY | ≤ 0.25
112 | NIEG | ≤ 0.25
113 | IARD | ≤ 0.25
114 | PRII | ≤ 0.25
115 | WGLS | ≤ 0.25
116 | DDFL | ≤ 0.25
117 | WKIM | ≤ 0.25
118 | LYDY | ≤ 0.25
119 | VLWS | ≤ 0.25
120 | SWRP | ≤ 0.25
121 | YMWT | ≤ 0.25
122 | TNWR | ≤ 0.25
123 | VHMA | ≤ 0.25
124 | TFPP | ≤ 0.25
125 | DPGC | ≤ 0.25
126 | SQDG | ≤ 0.25
127 | ESYM | ≤ 0.25
128 | LVVD | ≤ 0.25
129 | LLRA | ≤ 0.25
130 | MTNP | ≤ 0.25

Row | Variant | enrichment ratio
131 | FTAT | ≤ 0.25
132 | NQQC | ≤ 0.25
133 | RHSY | ≤ 0.25
134 | YRHF | ≤ 0.25
135 | LKLR | ≤ 0.25
136 | GWWT | ≤ 0.25
137 | LDCQ | ≤ 0.25
138 | RMGI | ≤ 0.25
139 | ICCI | ≤ 0.25
140 | PSSY | ≤ 0.25
141 | FQLI | 5.52
142 | AMSP | ≤ 0.25
143 | INRR | ≤ 0.25
144 | QIEK | ≤ 0.25
145 | YKFV | ≤ 0.25
146 | RVEF | ≤ 0.25
147 | WRKE | ≤ 0.25
148 | QLPW | ≤ 0.25
149 | YDHH | ≤ 0.25
150 | TPWR | ≤ 0.25
151 | FWMV | ≤ 0.25
152 | IVCY | 1.11
153 | VFLT | ≤ 0.25
